From patent US20240190896A1, “SMTP-7 DERIVATIVE AND USE THEREOF” (Shanghai Senhui Medicine Co., Ltd., priority 2021, published 2024)

Tests used:
[1] = tested on: cerebral infarction model (embolic stroke model); test: Thromboembolism in rats: cerebral infarction range assay (TTC); type: in vivo, rat; details: for Infarction area %: 24 h after administration; for cerebral infarction area compared to the model group (in words): rat, in vivo
Experimental: The catheter was carefully withdrawn. […] Each group included 10 rats. […] The brain tissue sections were placed into a 2% solution of tetrazolium chloride (TTC) and incubated at 37° C. for 5 min. The infarcted tissues were white, and the non-infarcted tissues were red. The cerebral infarction area was measured using Image J software, and the percentage of the infarction area to the total brain area was calculated. Percentage of cerebral infarction area %=cerebral infarction area/total brain area×100% The metrology data are expressed as x±s, and pairwise comparisons were made using T-TEST; P<0.05 indicates a statistical difference.

[2] = tested on: cerebral infarction model (embolic stroke model); test: Thromboembolism in rats: neurological function scoring; type: in vivo, rat; details: for Behavioral scores, before administration: score 1 h after model; for behavior compared to the model group (in words): 10 mg/kg
Experimental: The catheter was carefully withdrawn. […] Each group included 10 rats. […] The extent of behavioral disorders in the animals was observed and scored before administration and 24 h after treatment. The scoring criteria were as follows: [table] The metrology data are expressed as x±s, and pairwise comparisons were made using T-TEST; P<0.05 indicates a statistical difference.

Row | SMILES | Infarction area % ([1]; 5 mg/kg i.v.) [%] | Infarction area % ([1]; 10 mg/kg i.v.) [%] | Infarction area % ([1]; 20 mg/kg i.v.) [%] | cerebral infarction area compared to the model group (in words) [1] | Behavioral scores, 24 h after administration ([2]; 5 mg/kg i.v.) | Behavioral scores, before administration ([2]; 5 mg/kg i.v.) | behavior compared to the model group (in words) [2] | Behavioral scores, 24 h after administration ([2]; 10 mg/kg i.v.) | Behavioral scores, before administration ([2]; 10 mg/kg i.v.) | Behavioral scores, 24 h after administration ([2]; 20 mg/kg i.v.) | Behavioral scores, before administration ([2]; 20 mg/kg i.v.)
1 | [2H]C([2H])(CC[C@@H](C(=O)O)N1Cc2c(cc(O)c3c2O[C@@](C)(CC/C=C(\C)CCC=C(C)C)[C@@H](O)C3)C1=O)N1Cc2c(cc(O)c3c2O[C@@](C)(CC/C=C(\C)CCC=C(C)C)[C@@H](O)C3)C1=O [Compound 1, δ-Deutero SMTP-7] | 2.47 ± 2.21 | 1.38 ± 0.9 | 1.7 ± 1.1 | significant improvements | 7.1 ± 1.8 | 10.5 ± 0.5 | showed improvements compared to the model group | 6.5 ± 2.5 | 10.2 ± 0.4 | 6.6 ± 2.2 | 10.2 ± 0.4
2 | CC(C)=CCC/C(C)=C/CC[C@]1(C)Oc2c(c(O)cc3c2CN(CCC[C@@H](C(=O)O)N2Cc4c(cc(O)c5c4O[C@@](C)(CC/C=C(\C)CCC=C(C)C)[C@@H](O)C5)C2=O)C3=O)C[C@@H]1O [SMTP-7, Stachybotrys microspore triprenyl phenol-7] | – | 1.9 ± 2.35 | – | significant improvements | – | – | showed improvements compared to the model group | 6.3 ± 2.4 | 10.2 ± 0.4 | – | –
